PubChem BioAssay AID1508624 (National Center for Advancing Translational Sciences (NCATS), 2021)
In all, about 48,000 compounds went through this assay and about 120 (0.25%) were called active. Inconclusive results (about 4%) are left out. The call rests on the fitted dose curve; in most records, active means well fitted activation curve with a large enough effect; inconclusive means small, poorly fitted or top-dose-only effect, or another doubt; inactive means no such curve, though single readings can be large or run the other way. The list shows a part of the results.

Assay: Primary qHTS for Identification of Small Molecule Activators of Huntingtin-Antisense Promoter Activity; further: nearly all actives have a fitted effect of over 55% in size
Settings: HEK293 HTT-AS promoter firefly luciferase reporter, 24 h; series mostly up to 57.5 µM; activity change, positive = activation: at the top concentration
How it was run: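 Firefly luciferase signal from promoter-reporter HEK293 cells was scaled between vehicle (0%) and zero RLU (-100%). Compounds were tested at final concentrations of up to 57.5 uM over 24 h at 37 degrees C. PTC124 at 50 uM final served as control inhibitor.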

Activity change, positive = activation, inactive:
CCOC(=O)C(CC)Sc1nnc2[nH]c(=O)cc(C)n12 (stereo not drawn) -0.681%, COc1cccc(CNC(=O)CC(c2ccc(C)cc2)N2Cc3ccccc3C2=O)c1 (stereo not drawn) -24.9%, Cc1ccc(CNC(=O)c2cnn(-c3ccc(F)cc3F)c2C2CCN(C(=O)OC(C)(C)C)CC2)cc1 -37.4%, CCCOc1ccc(C2C(=O)N(C3CCCCC3)CC(=O)N2CCC2=CCCCC2)cc1OC (stereo not drawn) -2.87%, COc1ccc(NS(=O)(=O)c2ccc3c(c2)n(C)c(=O)c(=O)n3C)cc1Cl -22%, CCOc1ccc(Nc2c(S(=O)(=O)c3ccc(C)cc3)cnc3ccc(OC)cc23)cc1 -23.3%, COC(=O)c1ccc(NC(=O)CC2C(=O)N(c3ccccc3)C(=O)N2C2CCCC2)cc1 (stereo not drawn) -15.8%, COc1ccc(CC(=O)N2CC(=O)Nc3ccc(Br)cc3C2c2ccc(F)cc2)cc1OC (stereo not drawn) -15.1%, COc1cc2nc(NCc3ccccc3Cl)n3nc(-c4cccnc4)nc3c2cc1OC -18.3%, COc1ccc(Cn2c(C(=O)O)c(CNC3CCC(C)CC3)c3ccc(C)cc32)cc1 (stereo not drawn) -20%, COc1cc(C(=O)N2CCC(c3ccncc3)CC2)cc(OC)c1OC -16.9%, COc1cccc(CNC(=O)c2cc(-c3cccs3)nc3ccccc23)c1 -14.2%, COCCCNC(=O)CSc1nc2nc(C)c(Cc3ccccc3Cl)c(C)n2n1 -23.3%, CC(=O)N1CCCc2cc(S(=O)(=O)NCc3ccc(N(C)C)cc3)ccc21 -22.8%, COc1cccc(C(=O)Nc2ccc3nc(SCc4ccc(C)cc4)sc3c2)c1 -31.5%, Cn1nc(-c2ccccc2)c(-c2ccccc2)c(C(=O)Nc2ccc(S(N)(=O)=O)cc2)c1=O -20.4%, Cc1cccc(-n2c(SCC(=O)Nc3ccccc3Cl)nc3n[nH]c(C)c3c2=N)c1 -49.6%, CCCOc1ccc(C(=O)Nc2ccc(NC(=O)c3cccc(Cl)c3)cc2)cc1 3.9%, Cc1ccc(C)c(N2CCN(C(=O)c3cc(S(=O)(=O)N4CCCC4)c[nH]3)CC2)c1 -23.5%, COc1ccc(NC(=O)c2c(NCc3cccc(OC)c3)sc3c2CCC3)cc1 -15.7%, CCc1ccc(S(=O)(=O)Nc2cc(-c3cn4ccccc4n3)ccc2C)cc1 -2.18%, Cc1cccc(Nc2ncnc3c2cnn3C)c1C 2.35%, COc1ccc(C)c2sc(N(Cc3cccnc3)C(=O)COc3ccccc3)nc12 -33.8%, Cc1ccc2c(c1)N(C(=O)N1CCC(C(=O)NC3CCCCCC3)CC1)CCO2 -19.4%, Cc1ccc(-n2ncc3c(N4CCN(C)CC4)ncnc32)cc1 -59.9%, COc1cc(OC)cc(C(=O)NCc2ccc3c(c2)CCN3C(=O)c2ccccc2)c1 -39.1%, O=C(NCc1ccccc1Cl)C(=O)NCC(c1ccco1)S(=O)(=O)c1cccs1 (stereo not drawn) -8.97%, O=C(O)c1ccc(-n2nc(-c3ccccc3O)nc2-c2ccccc2O)cc1 -7.34%, COc1ccccc1CNC(=O)C1CCN(c2nn3c(=O)cc(C)nc3s2)CC1 -15.8%, CCC1CCCCN1CCCNC(=O)c1cc2c(Cl)nc3ccc(C)cc3c2s1 (stereo not drawn) -28.8%, COc1ccc(Cn2c(=O)c3oc4ccccc4c3n(CC(=O)Nc3cc(C)cc(C)c3)c2=O)cc1 -0.66%, Cc1c2cnn(CC(=O)NCCc3ccccc3)c(=O)c2c(C)n1Cc1ccccc1Cl -3.78%, CCC1CCCCN1CCCNC(=O)c1ccc2c(c1)N(Cc1cccc(C)c1)C(=O)c1ccccc1S2(=O)=O (stereo not drawn) -13.8%, COc1ccc(/C=C(\C#N)c2nc(-c3ccc(Cl)c(Cl)c3)cs2)cc1OC -2.96%, COc1cc(C(=O)NCC(c2ccc(N(C)C)cc2)N2CCCC2)cc(OC)c1OC (stereo not drawn) -6%, CCOc1ccc(NC(=O)CSc2nc3nc(C)c(Cc4ccccc4)c(C)n3n2)cc1 -11.9%, O=C(COc1ccccc1F)NC1CC(=O)N(c2ccc3c(c2)OCCO3)C1 (stereo not drawn) -1.73%, CCc1ccccc1NC(=O)CSc1nc2c(oc3ccccc32)c(=O)n1-c1ccccc1 -14.8%, CCOc1ccc(NC(=O)CN2C(=O)CCSc3ccc(S(=O)(=O)N4CCCC4)cc32)cc1 8.31%, O=C(NCC(c1cccnc1)N1CCOCC1)C(=O)Nc1cccc(Cl)c1 (stereo not drawn) -9.31%, CSc1ccc(CCNC(=O)c2sc3ncccc3c2-n2cccc2)cc1 -32.1%, COc1cccc(-n2cc(C(=O)NCCc3cccc(C)c3)c3ccccc3c2=O)c1 -29.7%, Cc1ccc(C)c(N2CCN(C(=O)C(C)n3nc(C)c4sc5ccccc5c4c3=O)CC2)c1 (stereo not drawn) -10.8%, COC(=O)c1ccc(NC(=O)N2CCc3c([nH]c4ccccc34)C2c2ccc(C)cc2)cc1 (stereo not drawn) -42%, CCCCOC(=O)c1ccc(NC(=O)c2ccc3c(c2)CCN3S(=O)(=O)c2ccccc2)cc1 -24.3%, Cc1ccc2nc(CSc3nnc(NC(=O)COc4ccccc4F)s3)cc(=O)n2c1 -6.61%, COc1ccc(C)cc1N(CC(=O)N1CCC(C)CC1)S(=O)(=O)c1ccc(C)cc1 -11.1%, Nc1c(C(=O)c2ccc3c(c2)OCO3)sc(Nc2ccccc2F)c1S(=O)(=O)c1ccccc1 -24.6%, COc1ccc(C2CC(=O)c3cc(-c4nc(-c5cccc([N+](=O)[O-])c5)cs4)c(=O)n(-c4cc(C)cc(C)c4)c3C2)cc1 (stereo not drawn) -5.8%, CCOC(=O)CSc1nc2sc3c(c2c(=O)n1CC)CCCC3 -23.3%, O=C(CCCn1c(=O)c2sccc2n(Cc2c(F)cccc2Cl)c1=O)NCc1ccccc1 6.49%, Cc1cnc2c(c1SCC(=O)N(C)c1ccccc1)c(=O)n(C)c(=O)n2C -5.37%, Cn1c(=O)c2c(-c3ccccc3Br)n(C(C)(C)C)cc2n(C)c1=O -30.8%, CCOc1ccccc1CNS(=O)(=O)c1cnc(N)nc1 -8.98%, COc1ccccc1Cn1c(CNS(=O)(=O)c2ccc(Cl)s2)nc2cccnc21 -29.9%, CC(=O)c1cccc(NC(=O)Cn2cnc3c2c(=O)n(C)c(=O)n3C)c1 -18.5%, CCOC(=O)c1cccc(NC(=O)Cc2ccc(NC(=O)N3CCCCc4ccccc43)cc2)c1 -8.27%, CCC(=O)N1CCc2cc(Br)cc(S(=O)(=O)N3CCCC(C(=O)Nc4ccc(CC)cc4)C3)c21 (stereo not drawn) -14.4%, COc1ccc(-n2c(CCC(=O)O)ccc2-c2ccccc2)cc1 11.1%, CCOC(=O)c1c(C)[nH]c(C)c1S(=O)(=O)N1CCCC(C(=O)N2CCN(c3ccc(Cl)cc3)CC2)C1 (stereo not drawn) -12.3%, Cc1nnc(N2CCN(c3ccccc3)CC2)c2c1nnn2Cc1ccc(F)cc1 10.2%, O=C(Nc1ccccc1C(=O)OCc1cc(=O)n2c3c(sc2n1)CCCC3)c1ccc(Cl)cc1 -24.6%, CCOC(=O)c1[nH]c(C)c(CCC(=O)N2CCN(c3cc(Cl)ccc3C)CC2)c1C -36.9%, O=C1Nc2c(c(=O)[nH]c(=O)n2-c2ccc(Cl)cc2)C1(NS(=O)(=O)c1ccccc1)C(F)(F)F (stereo not drawn) 13.6%, Cc1ccc(C)c(NC(=O)CCn2cnnn2)c1 -9.11%, NCCS 3.86%, O=C(Cc1ccccc1)NC1CC(=O)N(c2ccc3c(c2)OCCO3)C1 (stereo not drawn) -9.43%, Cc1cc2c(cc1S(=O)(=O)CCC(=O)NCc1ccccc1)OCC(=O)N2 -12.1%, COCCOC(=O)C1=C(C)NC(C)=C(C(=O)OC(C)C)C1c1cccc([N+](=O)[O-])c1 (stereo not drawn) -3.49%, CCN(CC)c1ccc(NC(=O)C(NS(=O)(=O)c2cccs2)C(C)C)c(C)c1 (stereo not drawn) -13.6%, O=C(OCc1ccccc1F)c1ccc(-c2nnn(Cc3ccccc3)n2)cc1 -5.82%, CN(C(=O)c1cnc(N2CCOCC2)c2ccccc12)c1ccccc1F -12.1%, CCn1nc(-c2ccccc2)c(-c2ccccc2)c(C(=O)Nc2ccccc2C(N)=O)c1=O -6.13%, CCCOc1ccc2c(c1)CC[C@@H]1[C@@H]2CC[C@]2(C)C(OC)CC[C@@H]12 (stereo partly drawn) 0.247%, COc1ccc(-n2nnnc2C2CCN(S(=O)(=O)c3cccc(Cl)c3C)CC2)cc1 -16%, Cc1ccc(N2CCN(Cc3nnc(-c4ccc5c(c4)OCO5)o3)CC2)c(C)c1 -6.68%, Cc1cccc(NC(=O)Cn2nc(C)c3nn(-c4ccc(Cl)cc4)c(C)c3c2=O)c1C -31.7%, COc1ccccc1N1CCN(C(=O)c2ccc3c(c2)N(Cc2ccccc2)C(=O)c2ccccc2S3(=O)=O)CC1 -23.8%, Cc1cc(C)cc(NC(=O)CSCc2cc(=O)c3cc(Cl)ccc3[nH]2)c1 -14.5%, O=C(c1cnc(N2CCOCC2)c2ccccc12)N1CCN(c2ccc(F)cc2)CC1 -27.8%, CC1(C)CC(=O)c2cc(-c3nc(-c4ccc(Br)cc4)cs3)c(=O)n(-c3ccccc3)c2C1 -4.79%, Cc1c(-c2nc(-c3ccc4c(c3)[nH]c(=O)n4C)no2)cccc1[N+](=O)[O-] -18.3%, Cc1cccc(-c2noc(CN(C(C)C)S(=O)(=O)c3ccc(Br)cc3)n2)c1 -34.7%, O=C1c2ccccc2-c2onc3c(Br)cc(NC4CCCCC4)c1c23 -5.64%, CN1C(C(=O)Nc2ccccn2)=C(O)c2ccccc2S1(=O)=O, Cc1cccc(N2C(=O)CSC23C(=O)N(CC(=O)NCCc2ccccc2)c2ccccc23)c1 (stereo not drawn) -9.38%, O=C(CSc1nnc(-c2cccs2)o1)Nc1cccc(C(F)(F)F)c1 -8.32% [at 11.5 µM, percent change from vehicle, -100% = no light], COc1ccc(-c2cc(C(F)(F)F)n3nc(-c4ccc(Cl)cc4)cc3n2)cc1OC -1.27%, COCCNC(=O)CSc1nc2cc3c(cc2c(=O)n1CCCCCC(=O)NCCc1ccc(OC)c(OC)c1)OCO3 -1.87%, COc1c(C)c2c(c(O)c1C/C=C(\C)CCC(=O)OCCN1CCOCC1)C(=O)OC2 -39%, Cc1ccc(CN(C(=O)COc2ccc(Cl)c(C)c2)c2ccccn2)o1 -17.4%, C[C@]12CCC(=O)C=C1C=C[C@@H]1[C@@H]2CC[C@@]2(C)[C@H]1CC[C@@]21CCC(=O)O1 -33.1%, O=C(CN1C(=O)COc2ccc(S(=O)(=O)N3CCOCC3)cc21)N1CCN(c2cccc(C(F)(F)F)c2)CC1 -15.6%
